Results from publication PMC13083723 (Patterns, 2026).
Out of some 5,400 compounds screened, about 190 (3.5%) showed an effect of 50% or more. This is one part of the list. Residues, ends and D or L forms follow the SMILES beside them.

Tested on: Vero-E6
Test: primary screen, phospholipidosis by LipidTOX staining; higher = more effect of the substance
Conditions: 10 µM
Outline: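 Single-concentration screen at 10 μM, with DMSO 0.1 v/v % and amiodarone 10 μM as controls. Read-out is LipidTOX Red phospholipid staining, which tolerates aldehyde fixation, in Vero-E6 cells.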

Point of comparison: CC(=O)Nc1ccc(NC(=S)NC(=O)c2ccc(C(C)(C)C)cc2)cc1, result_ITMP 2.55%. Against it:
- C/C(=N\NC(=O)C(NC(=O)c1ccccc1)c1n[nH]c(=O)c2ccccc12)c1cccc(Br)c1 (centres unmarked) — lower, -0.51%
- COc1ccc(OC)c(C(O)C(C)N)c1 (centres unmarked) — lower, -0.82%
- COC(=O)c1cc2c(C(F)(F)F)cc(-c3ccccc3)cc2n1O — lower, -5.6%
- CNC(CC(=O)O)C(=O)O (centres unmarked) — lower, 0.5%
- NCC(=O)N[C@@H](CCC(N)=O)C(=O)O (H-Gly-Gln-OH) — lower, -2.88%
- C[C@H](NC(=O)Cc1cc(F)cc(F)c1)C(=O)N[C@H](C(=O)OC(C)(C)C)c1ccccc1 — lower, -3.76%
- Ic1cncc(OC[C@@H]2CCN2)c1 — lower, 0.83%
- CC(O)CC(=O)O (centres unmarked) — higher, 2.83%
- CC(C)N(CCCNC(=O)Nc1ccc(C(C)(C)C)cc1)C[C@H]1O[C@@H](n2ccc3c(N)ncnc32)[C@H](O)[C@@H]1O — lower, -10.6%
- CC(=O)NC1N=C(c2ccccc2)c2ccccc2NC1=O (centres unmarked) — lower, 1.13%
- C=C[C@@]1(C)CC(=O)[C@]2(O)[C@@]3(C)[C@@H](O)CCC(C)(C)[C@@H]3[C@H](O)[C@H](OC(C)=O)[C@@]2(C)O1 — lower, -2.23%
- CN1CCN(C2=Cc3ccccc3Oc3ccc(Cl)cc32)CC1 — higher, 61.3%
- C[C@]12CC[C@@H]3c4ccc(O)cc4CC[C@H]3[C@@H]1CC[C@@H]2OC(=O)CCC1CCCC1 — lower, -1.02%
- C[C@H](NC(=O)[C@@H](O)c1cc(F)cc(F)c1)C(=O)N[C@@H]1C(=O)N(C)c2ccccc2-c2ccccc21 — lower, -2.55%
- O=C(O)CCCCN(CCc1ccccc1OCc1ccc(CCc2ccccc2)cc1)Cc1ccc(C(=O)O)cc1 — lower, 0.2%
- CO[C@@]1(NC(=O)CSCC#N)C(=O)N2C(C(=O)O)=C(CSc3nnnn3C)CS[C@@H]21 — lower, -3.31%
- CCOC(=O)c1cc2ccc(O)cc2oc1=O — lower, -3.11%
- COc1ccc2[nH]c(I)c(CCNC(C)=O)c2c1 — lower, -1.65%
- CCOc1cncc(/C=C/CCNC)c1 — lower, -0.57%
- O=c1cc(N2CCOCC2)oc2c1ccc1ccccc12 — lower, 0.24%
- N[C@H](CO)C(=O)O — lower, 0.12%
- CCn1c(-c2nonc2N)nc2cncc(CNC3CCNCC3)c21 — lower, 2.13%
- O=S(=O)(c1cccc2cnccc12)N1CCNCC1 — lower, 0.47%
- C[C@H]1O[C@@H](O[C@H]2[C@@H](O)C[C@H](O[C@H]3[C@@H](O)C[C@H](O[C@H]4CC[C@]5(C)C6C[C@@H](O)[C@]7(C)[C@@H](C8=CC(=O)OC8)CC[C@]7(O)C6CC[C@@H]5C4)O[C@@H]3C)O[C@@H]2C)C[C@H](O)[C@@H]1O (some centres unmarked) — lower, -8.53%
- CC(=O)N(O)CCCCCNC(=O)CCC(=O)N(O)CCCCCNC(=O)CCC(=O)N(O)CCCCCN — lower, -0.4%
- O=C1Cc2cc(CCN3CCN(c4nsc5ccccc45)CC3)c(Cl)cc2N1 — lower, 0.61%
- CC(C)/N=c1\cc2n(-c3ccc(Cl)cc3)c3ccccc3nc-2cc1Nc1ccc(Cl)cc1 — higher, 7.06%
- C[N+](C)(C)CCCCCNCC12CC3CC(CC(C3)C1)C2 — lower, 0.34%
- CCCC(=O)N1CCCN(c2nc(N)c3cc(OC)c(OC)cc3n2)CC1 — lower, 0.19%
- CCN[C@H]1C[C@H](C)S(=O)(=O)c2sc(S(N)(=O)=O)cc21 — higher, 2.72%
- O=C(O)CCCCCCCCCCCCCCc1ccc(I)cc1 — lower, 0.54%
- CCC(CC)O[C@@H]1C=C(C(=O)O)C[C@H](N)[C@H]1NC(C)=O — lower, -2.44%
- O=c1cc(-c2ccc(O)c(O)c2)oc2cc(O)cc(O)c12 — lower, -5.81%
- CCOc1cc(C(=O)N2CCC(N3CCN(C)CC3)CC2)ccc1Nc1ncc2c(n1)N(C1CCCC1)c1ccccc1C(=O)N2C — higher, 14.1%
- O=C(NOCCO)c1ccc2cncn2c1Nc1ccc(I)cc1F — higher, 2.64%
- CC(C)(CC(=O)N1CCCC1)NCC(=O)N1C[C@@H](F)C[C@H]1C#N — lower, -0.16%
- C[C@]12CC[C@@H]3c4ccc(OC(=O)N(CCCl)CCCl)cc4CC[C@H]3[C@@H]1CC[C@@H]2OP(=O)([O-])[O-] — lower, -4.08%
- COC(=O)Nc1ccc(-c2nc(N3CCOCC3)c3cnn(C4CCN(Cc5cccnc5)CC4)c3n2)cc1 — higher, 24.2%
- CC(C)(C(=O)c1cccnc1)c1cccnc1 — lower, -0.75%
- Nc1ncn([C@H]2C[C@H](O)[C@@H](CO)O2)c(=O)n1 — lower, -9.37%
- COc1ccc2nc3ccc(Cl)cc3c(SCCCN)c2c1 — lower, -9.55%
- CN1CC(=O)NC1=N — lower, -2.8%
- Cn1c(COP(=O)(NCCBr)NCCBr)cnc1[N+](=O)[O-] — lower, -1.53%
- O=C(Cc1ccc(-c2ccc(OCCN3CCOCC3)cc2)cn1)NCc1ccccc1 — higher, 15.5%
- COCCN1CCC(C(=O)NO)(S(=O)(=O)c2ccc(Oc3ccc(OC(F)(F)F)cc3)cc2)CC1 — lower, -0.66%
- N[C@@H]1CCCCN(c2c(F)cc3c(=O)c(C(=O)O)cn(C4CC4)c3c2Cl)C1 — lower, -1.6%
- O=[N+]([O-])c1ccc2c(c1)S(=O)(=O)C=C2 — lower, -15.1%
- C/C(O)=C(\C#N)C(=O)Nc1cc(Br)ccc1Br — lower, -1.16%
- CN(C)CCC(O)(c1ccccc1)c1ccccc1Cl (centres unmarked) — lower, 0.93%
- CSc1ccccc1OCC(O)CNC(C)C (centres unmarked) — lower, 0.09%
- CC[C@H]1OC(=O)[C@H](C)[C@@H](O[C@H]2C[C@@](C)(OC)[C@@H](O)[C@H](C)O2)[C@H](C)[C@@H](O[C@@H]2O[C@H](C)C[C@H](N(C)C)[C@H]2O)[C@](C)(OC)C[C@@H](C)C(=O)[C@H](C)[C@@H](O)[C@]1(C)O — lower, -11.1%
- CCOc1ccccc1OCC1CNCCO1 (centres unmarked) — lower, -0.95%
- NC(=O)Cc1cccc(C(=O)c2ccccc2)c1N — lower, -4.4%
- C[C@H]1COC2=C1C(=O)C(=O)c1c2ccc2c1CCCC2(C)C — lower, -1.74%
- CN(C)CC[C@H](CSc1ccccc1)Nc1ccc(S(=O)(=O)NC(=O)c2ccc(N3CCN(Cc4ccccc4-c4ccc(Cl)cc4)CC3)cc2)cc1[N+](=O)[O-] — lower, -6.66%
